Hit rate of the full screen: of about 310,000 compounds, about 14,000 (4.5%) showed an effect of 50% or more. Effects have a minus sign here. This is one part of the list.
target: human ether-à-go-go-related gene (hERG) potassium channel (human, UniProt Q12809); experiment: primary screen, population patch clamp on CHO cells stably expressing hERG
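Note: peak tail current of the secondary pulse compared with the same well before compound.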

human ether-à-go-go-related gene (hERG) potassium channel, sequence (Q12809 whole entry, looked up): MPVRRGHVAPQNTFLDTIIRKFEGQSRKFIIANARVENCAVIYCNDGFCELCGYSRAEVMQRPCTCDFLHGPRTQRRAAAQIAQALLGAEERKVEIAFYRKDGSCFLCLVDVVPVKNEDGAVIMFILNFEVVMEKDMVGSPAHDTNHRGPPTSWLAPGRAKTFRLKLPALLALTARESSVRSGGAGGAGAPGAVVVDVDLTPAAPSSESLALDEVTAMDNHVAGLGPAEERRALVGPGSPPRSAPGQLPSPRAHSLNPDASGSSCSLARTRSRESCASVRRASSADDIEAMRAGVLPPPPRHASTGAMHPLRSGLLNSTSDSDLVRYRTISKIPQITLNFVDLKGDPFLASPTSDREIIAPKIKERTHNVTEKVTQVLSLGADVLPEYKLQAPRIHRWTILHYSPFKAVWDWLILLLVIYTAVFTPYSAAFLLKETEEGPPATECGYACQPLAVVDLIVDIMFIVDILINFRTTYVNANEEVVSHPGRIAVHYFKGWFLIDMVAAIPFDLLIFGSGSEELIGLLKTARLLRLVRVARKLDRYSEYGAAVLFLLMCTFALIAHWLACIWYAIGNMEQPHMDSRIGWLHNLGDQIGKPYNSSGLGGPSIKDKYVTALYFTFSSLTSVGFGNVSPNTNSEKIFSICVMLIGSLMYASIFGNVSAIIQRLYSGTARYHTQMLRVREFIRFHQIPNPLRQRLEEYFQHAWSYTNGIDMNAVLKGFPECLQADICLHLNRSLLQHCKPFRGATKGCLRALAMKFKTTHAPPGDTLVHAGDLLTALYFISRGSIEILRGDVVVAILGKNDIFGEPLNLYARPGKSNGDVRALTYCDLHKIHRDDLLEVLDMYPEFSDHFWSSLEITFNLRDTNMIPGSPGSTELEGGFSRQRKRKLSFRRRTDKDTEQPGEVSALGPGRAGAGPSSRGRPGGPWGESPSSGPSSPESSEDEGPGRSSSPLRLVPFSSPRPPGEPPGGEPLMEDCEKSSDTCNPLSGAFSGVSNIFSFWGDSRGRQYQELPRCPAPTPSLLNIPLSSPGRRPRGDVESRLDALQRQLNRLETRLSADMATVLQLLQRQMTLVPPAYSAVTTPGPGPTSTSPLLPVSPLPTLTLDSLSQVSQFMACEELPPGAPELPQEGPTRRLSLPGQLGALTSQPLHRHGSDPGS

SMILES	hERG current change (%, negative = inhibition) at 10uM [%]
COc1ccc(N=C2C(=Nc3ccc(OC)cc3)N(c3ccc(OC)cc3)C(=S)N2c2ccccc2)cc1	11.2
CCCNC(=O)CN(c1cccc(F)c1)S(C)(=O)=O	1.87
CC1CCCN(CCCNC(=O)CN2C(=O)COc3ccc(S(=O)(=O)N4CCOCC4)cc32)C1 (centres unmarked)	21.1
COc1ccc(S(=O)(=O)Cc2ccc(C(=O)NC3CCCC3)o2)cc1	-3.4
CCOc1ccc(NC2OC(C)C(O)C(O)C2O)c([N+](=O)[O-])c1 (centres unmarked)	14.9
COC(=O)c1ccc2c(c1)N(Cc1ccccc1F)C(=O)c1ccccc1S2=O (centres unmarked)	-4.83
O=C(Cc1csc(N2CCOCC2)n1)N/N=C/c1ccc(Cl)cc1Cl	-15
COc1ccc([C@H]2C=C(C(=O)O)O[C@@H](OCc3ccc(CO)cc3)C2)cc1	15.4
CCN1CCc2nc(NC(=O)CC(c3ccccc3)c3ccccc3)sc2C1	-4.86
Cc1cc2oc(C(=O)N3CCN(Cc4ccccc4)CC3)c(C)c2cc1C	1.76
CC(C)Oc1ccc(CNCC2(O)CCOC(C)(C)C2)cc1 (centres unmarked)	-5.26
CCOc1ccc(N2CC(C(=O)Nc3ccc(F)cc3F)CC2=O)cc1 (centres unmarked)	-3.45
COc1ccc(OC)c(C2CC(=O)c3c([nH]c(C(=O)OC(C)C)c3C)C2)c1 (centres unmarked)	7.28
Cc1ccc(-c2nnn(CC(=O)N(Cc3ccco3)C(C(=O)NC3CCCC3)c3cccs3)n2)o1 (centres unmarked)	5.76
CN1OC(CC(=O)O)N(c2ccc(Cl)cc2)C1=O (centres unmarked)	27.4
O=C(COc1cccc(NC(=O)c2cccs2)c1)c1ccc(F)cc1	-33.8
O=c1cc(CN2CCN(c3ccc(F)cc3)CC2)c2cc3c(cc2o1)CCCC3	12.4
N#CCCN(Cc1cccnc1)C(=S)Nc1ccc(OC(F)F)cc1	-78.2
Cc1cccc(-n2c(SCC(N)=O)nnc2-c2ccco2)c1	-1.07
Cc1ccccc1N=CC1=C(O)c2ccccc2C1=O	2.26
Cc1cccc(C)c1OCC(=O)Nc1ccc(NC(=O)c2ccco2)cc1	2.17
CCc1ccc(CN(C)Cc2nc(Cc3cccc(C(F)(F)F)c3)no2)nc1	-28.1

SMILES	hERG current change (%, negative = inhibition) at 10uM [%]
O=C(CSc1nnc(-c2ccncc2)n1CCc1ccccc1)N1CCCC1	12.9
CN(C)S(=O)(=O)N(CC(=O)Nc1ccc(S(=O)(=O)N2CCCC2)cc1)c1ccccc1	-24.6
O=C(c1cc2cc(Cl)ccc2[nH]1)N1CCc2ccccc2C1	18.5
O=C(CSc1ncnc2c1cnn2-c1ccccc1)NCC1CCCO1 (centres unmarked)	-22.9
N#CCc1nc2n(n1)Cc1ccccc1-2	-22.4
COC(=O)c1cc(-c2ccc(OC)cc2)nc2nc(SC)[nH]c(=O)c12	25.7
O=C(Nc1cccc(Br)c1)c1ccc(CN2CCc3ccccc3C2)cc1	-1.55
COc1ccccc1-c1nnc(SCC(=O)Nc2ccccc2)o1	-13.5
c1ccc(-c2nnc(C3CC(c4cccnc4)=NO3)o2)cc1 (centres unmarked)	6.5
CCCCCCCCc1nc(SC(C)C(=O)O)n[nH]1 (centres unmarked)	5.98
O=C(CCNC(=O)c1ccccc1Cl)NCc1ccncc1	2.48
CCCCOC(=O)c1ccc(NC(=O)C(=O)NCc2ccccn2)cc1	12.2
COc1cc(/C=C/C(=O)N2CCCC2)cc(OC)c1OC	1.51
CC[C@@H](C)C(NC(=O)OC(C)(C)C)c1cn([C@@H](Cc2cc3ccccc3[nH]2)C(=O)N2CCN(C(=O)OC(C)(C)C)CC2)nn1 (some centres unmarked)	-13.4
COC(=O)C1=C(CS(=O)(=O)c2ccccc2)NC(=O)NC1c1ccccc1 (centres unmarked)	7.33
COP(=O)(OC)C(NC(=O)/C=C/c1ccccc1)C(Cl)(Cl)Cl (centres unmarked)	18
O=C(NCC1CCCO1)c1ccccc1-c1nc(-c2ccccc2)no1 (centres unmarked)	-18.4
Cc1cccc(/C(N)=N/OC(=O)C23CC4CC(CC(C4)C2)C3)c1	-1.25
O=C(CSc1nc(=O)n(CCN2CCOCC2)c2c1CCC2)Nc1ccc(OC(F)(F)F)cc1	-71.8
CCOc1ccc(S(=O)(=O)Nc2cccc(C(=O)N3CC(C)OC(C)C3)c2)cc1 (centres unmarked)	-3.45
CCOc1ccc(CNC(=S)N/N=C\c2ccc([N+](=O)[O-])cc2)cc1	-0.189
Cc1cccc2c1N(CCOc1ccc(C(C)(C)C)cc1)C(=O)C2=O	-7.48

SMILES	hERG current change (%, negative = inhibition) at 10uM [%]
O=C(CNC(=O)c1ccccc1)NCc1nc2ccccc2[nH]1	3.76
COc1ccc(C2c3[nH]c4ccccc4c3CCN2CCCn2cccn2)c(C)c1C (centres unmarked)	-9.49
O=C(c1ccc(Cn2cc(Cl)cn2)cc1)N1CCN(c2ccccc2)CC1	-58.4
Cc1cccc(N2CCN(S(=O)(=O)c3ccc4c(c3)OCCO4)CC2)c1C	-2.83
CCOC(=O)c1sc(NC(=O)c2cccc(S(=O)(=O)N3CCN(C)CC3)c2)cc1C	-21.4
Cc1c(C(=O)N2CCCCC2)c(S(=O)(=O)Nc2cccc(Br)c2)c(C)n1C	-4.02
CN1C(C(=O)Nc2ccc(OC(F)(F)F)cc2)=CC(c2cccs2)=NS1(=O)=O	2.74
Cc1ccc(S(=O)(=O)CC(=O)Nc2ccc(F)c(F)c2F)cc1	14.4
O=C(Nc1cccnc1)c1cc(F)c(F)cc1Cl	19.7
CC1CN(CCn2cnc3c(N)ncnc32)CC(C)O1 (centres unmarked)	12.1
CCOc1cc(/C=C2\NC(=S)N(c3c(C)n(C)n(-c4ccccc4)c3=O)C2=O)ccc1O	9.12
CCOc1cc(CNCCCN2CCOCC2)cc(Br)c1OCC(=O)Nc1cccc(C(F)(F)F)c1.Cl	-70.3
CC1CN(C(=O)C(C)OC(=O)c2ccc3ncsc3c2)CC(C)O1 (centres unmarked)	20.1
CCOC(=O)c1c(C)n(CC(O)CN(C)C)c2cc(Br)c(OC)cc12.Cl (centres unmarked)	-51.5
COc1ccc2oc3cc(C)[n+]([O-])c(-c4ccc(Cl)cc4)c3c2c1	-8.3
COc1ccc(CNc2oc(COc3ccccc3Cl)nc2C#N)cc1	3.67
CCOc1ccc(CN2CCC(Cc3ccccc3)CC2)cc1	-78.3
COc1cc(C2/C(=C(/O)c3ccc(OCC(C)C)cc3)C(=O)C(=O)N2CCN(C)C)ccc1O (centres unmarked)	5.74
COc1cccc(C(CC(=O)NCc2ccco2)NS(=O)(=O)c2ccc(C)cc2)c1OC (centres unmarked)	-16.6
Cc1cccc(NC(=O)c2cc(=O)n(Cc3ccccc3)c(=O)[nH]2)c1	-2.18
CC(NC(=O)c1ccc2ccccc2n1)c1ccccc1 (centres unmarked)	-6.17
CC(=O)/C(=N\Nc1ccc(C)cc1)N1CCOCC1	5.27

SMILES	hERG current change (%, negative = inhibition) at 10uM [%]
O=C(NCc1ccccc1F)C1CCCN1C(=O)NC1CCCCC1 (centres unmarked)	-11.8
Cc1ccc(-n2c(O)c(C=NCCN(C)C)c(=O)[nH]c2=O)cc1	20
Cc1c(C)n(C)c2ccc(C(=O)Nc3cccc4ccccc34)cc12	10.5
O=C(COc1ccccc1)NCC(=O)Nc1cccc(S(=O)(=O)NC2=NCCC2)c1	-2.56
Cc1ccc(C(=O)N2CCN(c3ccccc3Cl)CC2)cc1[N+](=O)[O-]	-35.3
Oc1ccccc1Cc1c(O)ccc2ccccc12	6.84
CCc1cccc(CC)c1NC(=S)NCc1ccc2c(c1)OCO2	-8.67
CC(C)[C@H](NC(=O)OC(C)(C)C)C(=O)N/N=C/c1cccc2nccnc12	-3.53
COc1ccccc1CCC(=O)Nc1cc(S(=O)(=O)N2CCOCC2)ccc1N1CCCC1	-30.8
Cc1nnc(NC(=O)CN2CCN(Cc3ccccc3)CC2)s1	12.1
COC(=O)C(NNc1ccccc1C)(NC(=O)c1ccc(F)cc1)C(F)(F)F (centres unmarked)	-1.2
C/C(=N/NC(=O)c1nnn(-c2nonc2N)c1COc1ccccc1)c1ccccc1Cl	11.2
Cl.Clc1ccc(OCc2nnc(SCCN3CCCCC3)n2Cc2ccco2)cc1	-75.9
Cc1[nH]c2ccccc2c1SCC(=O)Nc1nccs1	0.599
CC1CN(C(=O)CSc2cn(CC(=O)N3CCOCC3)c3ccccc23)CC(C)O1 (centres unmarked)	17.3
CCC1CCCCN1CCCNC(=O)c1cn(C)c2ccc(S(=O)(=O)N3CCOCC3)cc2c1=O (centres unmarked)	21.3
COC(=O)c1ccc(Nc2nc(C)cc(=O)[nH]2)cc1	-2.1
COc1cc(CNn2cnnc2)ccc1OCC(=O)NC(C)(C)C	1.29
O=C1NC(=O)N(Cc2ccccc2F)C1=O	21.3
CC(C)=CCN1CCN(Cc2cnc(C)s2)CC1CCO (centres unmarked)	11.8
